Among all 44,000 compounds or so, about 340 (0.77%) were called active. Inconclusive results (about 5%) are left out. Calls come from the whole dose curve; as a rule, active = well fitted inhibition curve with a large enough effect; inconclusive = small, poorly fitted or top-dose-only effect; inactive = flat fitted curve, though single readings scatter. The list shows a part of the results.
Assay: Acumen qHTS Assay for Inhibitors of the mTORC1 Signaling Pathway in MEF (Tsc2-/-, p53-/-) Cells: Sytravon; note: nearly all actives have a fitted effect of over 50% in size;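 for activity change, negative = inhibition: plate controls were DMSO for no effect and rapamycin for full effect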
Settings: phospho-rpS6 immunofluorescence/PI, 24 h; series mostly up to 38.3 µM; activity change, negative = inhibition: at the top concentration
Outline: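 Compounds act on Tsc2-/-, p53-/- fibroblasts carrying an empty vector for 24 h before fixation and dual staining for phospho-S6 and DNA (propidium iodide). Values are percentages of cells above a rapamycin-defined pS6/PI threshold.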
With `Cc1cc(C)cc(Nc2nc3ccccc3nc2-n2nc(C)cc2C)c1` the “activity change, negative = inhibition” value was inactive: -3.79%.
For `CCOC(=O)N1CCc2c(sc3c2c(=O)n(Cc2ccccc2)c(=O)n3CC(=O)Nc2cccc(C)c2)C1`, the “activity change, negative = inhibition” value was inactive: 0.999%.
With `COc1ccc(-c2cn3c(n2)sc2cc(C(=O)Nc4c(C)cccc4C)ccc23)cc1` the “activity change, negative = inhibition” value was inactive: -2.97%.
With `Cc1ccc(CNC(=O)C2(c3cccs3)CCOCC2)cc1` the “activity change, negative = inhibition” value was inactive: -6.77%.
With `CCCCC(=O)Nc1cc(-c2nc3cccnc3s2)ccc1C` the “activity change, negative = inhibition” value was inactive: 3.85%.
With `CCOc1ccc(NC(=O)CSc2ncnc3c2sc2ccccc23)cc1` the “activity change, negative = inhibition” value was inactive: 9.7%.
With `CN(C)S(=O)(=O)c1ccc(C(=O)Nc2c(C(=O)Nc3ccc(F)cc3)oc3ccccc23)cc1` the “activity change, negative = inhibition” value was inactive: -2.99%.
In the case of `COc1ccc(C(=O)n2nc(-c3ccc(Cl)cc3)nc2NCc2ccco2)cc1`, the “activity change, negative = inhibition” value was inactive: -15.3%.
With `CCc1ccc(NC(=O)c2cc3c(COC(C)=O)cnc(C)c3oc2=O)cc1` the “activity change, negative = inhibition” value was inactive: 12.2%.
In the case of `Cc1cc(C)c2c(n1)SCC(=O)N2CC(=O)Nc1ccccc1C`, the “activity change, negative = inhibition” value was inactive: -2.26%.
For `CNC(=O)C1CCC(Cn2c(=O)c3sccc3n(CC(=O)NCc3ccc(C)cc3)c2=O)CC1` (stereo not drawn), the “activity change, negative = inhibition” value was inactive: 5.64%.
With `COc1ccc(NC(=O)Cn2c(=O)oc3cc(Cl)ccc32)c(OC)c1` the “activity change, negative = inhibition” value was inactive: -3.08%.
With `Cn1c(=O)oc2cc(S(=O)(=O)N3CCCC(C(=O)NCc4ccccc4Cl)C3)ccc21` (stereo not drawn) the “activity change, negative = inhibition” value was inactive: 0.626%.
In the case of `Cc1ccc(C)c(NC(=O)CCCn2c(C)c3cnn(-c4ccccc4)c(=O)c3c2C)c1`, the “activity change, negative = inhibition” value was inactive: -6.42%.
In the case of `CCc1ccc(NC(=O)CSc2nc(C)c(C(=O)Nc3ccc(Cl)cc3)c(-c3ccc(OC)cc3)c2C#N)cc1`, the “activity change, negative = inhibition” value was inactive: 2.11%.
For `Cc1ccc(C2C(=O)N(C3CCCCCC3)CC(=O)N2C(C)C)cc1` (stereo not drawn), the “activity change, negative = inhibition” value was inactive: 5.64%.
In the case of `Cc1ccccc1C(=O)Nc1sc2c(c1C(=O)O)CCC(C(C)(C)C)C2` (stereo not drawn), the “activity change, negative = inhibition” value was inactive: 0.437%.
With `O=C(CSc1nc2c([nH]c3ccccc32)c(=O)n1-c1ccc(F)cc1)NCC1CCCO1` (stereo not drawn) the “activity change, negative = inhibition” value was inactive: 1.39%.
With `O=C(CSc1nc2c([nH]c3ccccc32)c(=O)n1-c1ccccc1)N1CCCc2ccccc21` the “activity change, negative = inhibition” value was inactive: -1.41%.
In the case of `Cc1cccc(NC(=O)c2cc(CN3CCOCC3)on2)c1C`, the “activity change, negative = inhibition” value was inactive: -0.662%.
For `Cc1cccc(S(=O)(=O)c2cn(C)c3cc(N4CCCCCC4)c(F)cc3c2=O)c1`, the “activity change, negative = inhibition” value was inactive: 0.483%.
In the case of `O=C(CSc1ccccc1)N1CCc2c([nH]c3ccccc23)C1c1ccc(Cl)cc1` (stereo not drawn), the “activity change, negative = inhibition” value was inactive: -7.64%.
For `COc1ccc(NC(=O)Cn2nc3c(cc2=O)CCCC3)cc1Cl`, the “activity change, negative = inhibition” value was inactive: 2.79%.
In the case of `CCCCc1nn2c(=O)cc(CN(CC)c3ccccc3)nc2s1`, the “activity change, negative = inhibition” value was inactive: 1.14%.
With `CC1=C(c2ccc(F)cc2)S(=O)(=O)N=C1N1CCC(C(=O)NCCc2ccccc2)CC1` the “activity change, negative = inhibition” value was inactive: -7.47%.
In the case of `Cc1nc(N2CCCC2)ncc1C(=O)NCc1ccc(Cl)cc1`, the “activity change, negative = inhibition” value was inactive: 5.86%.
In the case of `Cc1ccc(NC(=O)NCCOCCn2c(=O)oc3ccccc32)c(C)c1`, the “activity change, negative = inhibition” value was inactive: 0.277%.
For `COc1cccc(-n2c(SCC(=O)Nc3cccc(C)c3)nc3c([nH]c4ccccc43)c2=O)c1`, the “activity change, negative = inhibition” value was inactive: 0.187%.
With `O=C(NCc1ccc(Cl)cc1)c1cc2ccc3cccnc3c2[nH]1` the “activity change, negative = inhibition” value was inactive: -7.05%.
For `COc1ccccc1N1CCN(S(=O)(=O)c2ccc(-c3ccno3)cc2OC)CC1`, the “activity change, negative = inhibition” value was inactive: -3.03%.
With `COc1ccc(OC)c(C2=NS(=O)(=O)N(C)C(C(=O)Nc3ccc(C(C)=O)cc3)=C2)c1` the “activity change, negative = inhibition” value was inactive: 1.55%.
In the case of `COc1cc(CN(C(=O)COc2ccc(Cl)cc2)c2ccccn2)cc(OC)c1OC`, the “activity change, negative = inhibition” value was inactive: -6.73%.
In the case of `Cc1ccc(C)c(NC(=O)C2CCN(c3ncnc4c3nc3n4CCCCC3)CC2)c1`, the “activity change, negative = inhibition” value was inactive: -3.98%.
In the case of `CC(C)(C)c1ccc(C(=O)NNc2ncnc3c2cnn3-c2ccc(Cl)cc2)cc1`, the “activity change, negative = inhibition” value was inactive: 3.3%.
With `Cc1cccc(C)c1NC(=O)NCCCN1CCN(c2ccccc2)CC1` the “activity change, negative = inhibition” value was inactive: 0.303%.
With `CCc1ccccc1NC(=O)CC(C)S(=O)(=O)c1ccc2c(c1)NC(=O)CO2` (stereo not drawn) the “activity change, negative = inhibition” value was inactive: 1.23%.
With `CCNC(=O)C1CCN(c2nc3ccccc3nc2C(F)(F)F)CC1` the “activity change, negative = inhibition” value was inactive: -13.5%.
With `O=C(CSc1nc2c([nH]c3ccccc32)c(=O)n1-c1ccccc1)NCc1ccc(F)cc1` the “activity change, negative = inhibition” value was inactive: -5.38%.
With `CCc1ccc2occ(CC(=O)Nc3nnc(C)s3)c2c1` the “activity change, negative = inhibition” value was inactive: 2.78%.
For `O=C(CN1C(=O)C2(SCC(=O)N2c2ccccc2)c2ccccc21)Nc1ccccc1C(F)(F)F` (stereo not drawn), the “activity change, negative = inhibition” value was inactive: -6.13%.
With `CC(=O)c1nn(-c2ccc(OC(F)(F)F)cc2)nc1Nc1ccc(Cl)cc1` the “activity change, negative = inhibition” value was inactive: -1.5%.
In the case of `CCOc1ccc(NC(=O)Cn2cc(S(=O)(=O)c3ccc(C)cc3)c(=O)c3cc(F)ccc32)cc1`, the “activity change, negative = inhibition” value was inactive: 0.192%.
In the case of `COc1ccc(S(=O)(=O)N2CCC(C(=O)NC(C)c3ccccc3)CC2)cc1` (stereo not drawn), the “activity change, negative = inhibition” value was inactive: -2.72%.
For `Cc1ccc(CN2C(=O)C(O)(CC(=O)c3ccc(C)cc3)c3ccccc32)cc1` (stereo not drawn), the Potency was active: 9.27 µM.
For `O=C(Nc1ccc(Br)cc1)c1cc2nc(-c3ccccc3)cc(-c3ccccc3)n2n1`, the “activity change, negative = inhibition” value was inactive: 7.41%.
For `Cc1ccc(NC(=O)c2cc(S(=O)(=O)NC3CCCCCC3)ccc2F)cc1F`, the “activity change, negative = inhibition” value was inactive: -8.49%.
In the case of `COc1ccc2[nH]cc(CCN=C(NC(=O)c3cccc(Cl)c3)Nc3nc(C)cc(C)n3)c2c1`, the “activity change, negative = inhibition” value was inactive: -15%.
For `Cc1ccc(N2CC(NC(=O)CCc3ccccc3)CC2=O)cc1` (stereo not drawn), the “activity change, negative = inhibition” value was inactive: -0.354%.
Potency is the fitted concentration of half-maximal effect.
